Test results from the supplement of paper PMC4967469.
By IC50 is meant the dose at which the fit gives 50% viability; a fit beyond the top or the lowest dose is shown as a bound at that dose. For AUC the same curve is integrated over the 256-fold range of doses and scaled to a fraction; it is 1 without any effect and falls as sensitivity rises. For part of these data: The top dose, if marked as inferred, comes from the curve model; the source does not state it. For part of these data: An entry number marks a drug with two screens in the source, which often give different values.

Key:
Assay in all cases: Viability of human cancer cell lines after 72 h of drug (GDSC screen)
Bicalutamide = compound: CC(O)(CS(=O)(=O)c1ccc(F)cc1)C(=O)Nc1ccc(C#N)c(C(F)(F)F)c1 [Bicalutamide]; details: top dose inferred
Description: (§1)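 Human cancer cell lines in 384-well plates, medium with 10% serum, drug for 72 h over a 256-fold dose range (nine 2-fold or five 4-fold steps up to the top dose). Adherent lines were fixed and stained with the nucleic acid dye Syto60, suspension lines read with resazurin; signal relative to control wells, capped at 0 and 100%. One two-parameter sigmoid per drug and line, fitted in a mixed model over all curves with the slope shared within a line.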

TW-37 = compound: CC(C)c1ccccc1Cc1cc(C(=O)Nc2ccc(S(=O)(=O)c3ccccc3C(C)(C)C)cc2)c(O)c(O)c1O [TW-37]; details: top dose 5 µM
Description: as §1

AUY922 = compound: CCNC(=O)c1noc(-c2cc(C(C)C)c(O)cc2O)c1-c1ccc(CN2CCOCC2)cc1 [AUY922]; details: top dose 0.256 µM; top dose inferred
Description: as §1

Nilotinib = compound: Cc1cn(-c2cc(NC(=O)c3ccc(C)c(Nc4nccc(-c5cccnc5)n4)c3)cc(C(F)(F)F)c2)cn1 [Nilotinib]; details: top dose 2 µM
Description: as §1

LFM-A13 = compound: C/C(O)=C(\C#N)C(=O)Nc1cc(Br)ccc1Br [LFM-A13]; details: top dose 16 µM; top dose inferred
Description: as §1

Gemcitabine = compound: Nc1ccn([C@@H]2O[C@H](CO)[C@@H](O)C2(F)F)c(=O)n1 [Gemcitabine]; details: top dose 1.024 µM
Description: as §1

GNF-2 = compound: NC(=O)c1cccc(-c2cc(Nc3ccc(OC(F)(F)F)cc3)ncn2)c1 [GNF-2]; details: top dose 1.28 µM; top dose inferred
Description: as §1

MP470 = compound: S=C(NCc1ccc2c(c1)OCO2)N1CCN(c2ncnc3c2oc2ccccc23)CC1 [MP470]; details: top dose 20 µM; top dose inferred
Description: as §1

KIN001-270 = compound: Cc1ccc(Nc2cc(-c3cccc(N4C(=O)c5ccccc5C4=O)c3)ncn2)cc1NS(C)(=O)=O [KIN001-270]; details: top dose 20 µM; top dose inferred
Description: as §1

T0901317 = compound: O=S(=O)(c1ccccc1)N(CC(F)(F)F)c1ccc(C(O)(C(F)(F)F)C(F)(F)F)cc1 [T0901317]; details: top dose 10.24 µM; top dose inferred
Description: as §1

[1] = top dose 1.024 µM, screen: GDSC drug entry 150
[2] = top dose 10 µM, screen: GDSC drug entry 1502

Row | Cell Line | AUC (Bicalutamide; [1]) | IC50 (Bicalutamide; [1]) [nM] | AUC (Bicalutamide; [2]) | IC50 (Bicalutamide; [2]) [nM] | AUC (TW-37) | IC50 (TW-37) [nM] | AUC (AUY922) | IC50 (AUY922) [nM] | AUC (Nilotinib) | IC50 (Nilotinib) [nM] | AUC (LFM-A13) | IC50 (LFM-A13) [nM] | AUC (Gemcitabine) | IC50 (Gemcitabine) [nM] | AUC (GNF-2) | IC50 (GNF-2) [nM] | AUC (MP470) | IC50 (MP470) [nM] | AUC (KIN001-270) | IC50 (KIN001-270) [nM] | AUC (T0901317) | IC50 (T0901317) [nM]
1 | MS-1 (small cell lung carcinoma, suspension) | 0.991 | > 1020 | 0.989 | > 10000 | 0.571 | 477 | 0.706 | 56.5 | 0.98 | > 2000 | 0.989 | > 16000 | 0.462 | 51.1 | 0.991 | > 1280 | 0.866 | 14700 | 0.986 | > 20000 | 0.965 | > 10200
2 | Ramos-2G6-4C10 (Burkitt lymphoma, suspension) | 0.99 | > 1020 | 0.989 | > 10000 | 0.554 | 429 | 0.623 | 33.1 | 0.882 | 1590 | 0.985 | > 16000 | 0.79 | 384 | 0.989 | > 1280 | 0.901 | 19300 | 0.969 | > 20000 | 0.946 | > 10200
3 | NCI-H526 (small cell lung carcinoma, suspension) | 0.989 | > 1020 | 0.988 | > 10000 | 0.59 | 543 | 0.806 | 124 | 0.981 | > 2000 | 0.962 | > 16000 | 0.557 | 90.6 | 0.981 | > 1280 | 0.898 | > 20000 | 0.959 | > 20000 | 0.961 | > 10200
4 | LB2241-RCC (kidney, adherent) | 0.984 | > 1020 | 0.973 | > 10000 | 0.419 | 183 | 0.602 | 31.7 | 0.748 | 708 | 0.971 | > 16000 | 0.042 | < 4 | 0.889 | > 1280 | 0.873 | > 20000 | 0.974 | > 20000 | 0.98 | > 10200
5 | TE-6 (oesophagus, adherent) | 0.986 | > 1020 | 0.983 | > 10000 | 0.904 | > 5000 | 0.825 | 189 | 0.986 | > 2000 | 0.983 | > 16000 | 0.748 | 380 | 0.945 | > 1280 | 0.908 | > 20000 | 0.968 | > 20000 | 0.981 | > 10200
6 | CPC-N (small cell lung carcinoma, suspension) | 0.985 | > 1020 | 0.957 | > 10000 | 0.485 | 284 | 0.98 | > 256 | 0.857 | 1870 | 0.941 | > 16000 | 0.576 | 105 | 0.966 | > 1280 | 0.876 | > 20000 | 0.981 | > 20000 | 0.961 | > 10200
7 | EW-18 (Ewing sarcoma, suspension) | 0.985 | > 1020 | 0.978 | > 10000 | 0.641 | 789 | 0.741 | 82.8 | 0.94 | > 2000 | 0.967 | > 16000 | 0.648 | 169 | 0.985 | > 1280 | 0.962 | > 20000 | 0.969 | > 20000 | 0.956 | > 10200
8 | CGTH-W-1 (thyroid, adherent) | 0.986 | > 1020 |  |  | 0.505 | 323 | 0.585 | 27.2 | 0.611 | 252 | 0.969 | > 16000 | 0.182 | 7.18 | 0.976 | > 1280 | 0.851 | 15200 | 0.978 | > 20000 | 0.986 | > 10200
9 | DJM-1 (skin, adherent) | 0.988 | > 1020 | 0.986 | > 10000 | 0.612 | 632 | 0.562 | 23.6 | 0.97 | > 2000 | 0.949 | > 16000 | 0.352 | 25 | 0.988 | > 1280 | 0.918 | > 20000 | 0.958 | > 20000 | 0.97 | > 10200
10 | SCH (stomach, adherent) | 0.988 | > 1020 | 0.98 | > 10000 | 0.534 | 390 | 0.988 | > 256 | 0.988 | > 2000 | 0.982 | > 16000 | 0.988 | > 1020 | 0.976 | > 1280 | 0.912 | > 20000 | 0.982 | > 20000 | 0.984 | > 10200
11 | COR-L279 (small cell lung carcinoma, suspension) | 0.991 | > 1020 | 0.971 | > 10000 | 0.903 | > 5000 | 0.823 | 130 | 0.991 | > 2000 | 0.966 | > 16000 | 0.471 |  | 0.973 | > 1280 | 0.791 | 7900 | 0.979 | > 20000 | 0.978 | > 10200
12 | TE-9 (oesophagus, adherent) | 0.987 | > 1020 | 0.974 | > 10000 | 0.473 | 263 | 0.63 | 37.1 | 0.987 | > 2000 | 0.98 | > 16000 | 0.569 | 99.4 | 0.982 | > 1280 | 0.959 | > 20000 | 0.977 | > 20000 | 0.962 | > 10200
